In all, about 18,000 compounds went through this assay and about 750 (4.2%) were called active. Not shown: some 13% with an inconclusive outcome. The call rests on the fitted dose curve; tested in HEK293 cells. For part of its entries the source gives two or more results. The other results are left out here. There may be further records. Values that stand side by side are repeats in other runs, samples, wells, individuals or studies. Additions like (4×) give the number of equal values in this list.
Assay: qHTS for Inhibitors of binding or entry into cells for Lassa Virus
Conditions: Lassa virus pseudotyped entry inhibition, cell-based qHTS
Potency means the concentration at half of the fitted maximal effect.

Structure (SMILES) | Potency
COc1c(C)c2c(c(O)c1C/C=C(\C)CCC(=O)O)C(=O)OC2 | active: 1 µM (2×), 1.41 µM (2×), 398 nM, 891 nM [separate samples]

Source: PubChem BioAssay AID720533 (National Center for Advancing Translational Sciences (NCATS), 2013)
